This is one part of the list. Viral Rep nickase domains cut single-stranded DNA in vitro at 3 µM enzyme and 37 °C for 1 h; the strands have 90 letters, of which the middle is given. Numbers give uncut DNA relative to the enzyme-free pool, as log2; more negative means more cut, near 0 not cut, and no call is made. Shares of all reads are compared; values above 0 arise when much of the pool is cut.
These sequences were tested on T1, Rep nickase domain of chickpea chlorotic dwarf virus (assay: uncleaved DNA left, log2 of reads against the no-enzyme library (log2 ratio); higher = less cleavage (more negative = more Rep cleavage of the k-mer); sequences stand for … in CTCGTCCG…ACCGGAGA).
T1 sequence (protein, residues 1-124, tag omitted): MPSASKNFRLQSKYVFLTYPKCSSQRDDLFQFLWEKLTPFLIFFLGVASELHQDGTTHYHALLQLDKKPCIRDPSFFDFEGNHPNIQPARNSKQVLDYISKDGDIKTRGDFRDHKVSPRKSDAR
Method: (§1)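 A pool of 90-nt single-stranded DNAs with seven random bases just before the constant AC of the nick site (name = the seven bases) was cut by 3 µM recombinant His6-SUMO-tagged Rep nickase domain (300 nM DNA, 50 mM HEPES pH 8.0, 50 mM NaCl, 1 mM MnCl2, 1 h, 37 °C, three replicates). Uncut DNA was amplified and sequenced.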

| Sequence | uncleaved DNA left (log2) |
| --- | --- |
| ATACATA | -1.08 |
| GTGAGCG | -0.334 |
| CACCATA | -2.25 |
| CCTCGCA | -0.939 |
| AGGTTGC | -0.398 |
| TGCCGTG | -0.604 |
| GTCAGAG | 0.765 |
| GCCAGGC | 0.262 |
| ATCCGGA | 0.495 |
| GTTCGAG | 1.12 |
| GAGGATG | 0.502 |
| CGTCGTT | -1.37 |
| CGAGTCA | -0.285 |
| GCAGTCG | 0.0961 |
| TACCGTT | -2.78 |
| ATGGGAA | 1.19 |
| ATAGCGC | 0.0192 |
| TCATGGA | 0.00883 |
| GACCTTG | -0.179 |
| AGTCTGT | 0.744 |

| Sequence | uncleaved DNA left (log2) |
| --- | --- |
| TACTCTG | -0.14 |
| AGACTCA | 1.21 |
| GCGGAAG | 0.213 |
| CGTTAGT | -0.395 |
| CTCGAGC | 0.496 |
| TAACTCT | -3.65 |
| CAGAAAC | -0.266 |
| AACGGGG | 1.38 |
| ACCACCT | -1.79 |
| TCACGCA | -0.872 |
| TGTAGCG | 0.33 |
| GTCCTTC | 0.736 |
| TTCACAG | -1.52 |
| TGTCCCC | 1.31 |
| CTGAAGT | -0.537 |
| TGCACAG | -0.413 |
| CCTGGAA | 0.407 |
| TATCATG | -0.821 |
| AATACTT | -2.89 |
| GGCTTCG | -0.0957 |

These sequences were tested on T2, Rep nickase domain of faba bean necrotic yellows virus in the same assay as above.
T2 sequence (protein, residues 1-98, tag omitted): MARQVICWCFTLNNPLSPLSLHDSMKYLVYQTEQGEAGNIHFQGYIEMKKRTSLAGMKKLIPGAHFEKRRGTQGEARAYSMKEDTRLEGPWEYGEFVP
Method: as §1

| Sequence | uncleaved DNA left (log2) |
| --- | --- |
| ATACATA | 0.0484 |
| GTGAGCG | 0.00654 |
| CACCATA | 0.145 |
| CCTCGCA | 0.128 |
| AGGTTGC | 0.00661 |
| TGCCGTG | 0.0373 |
| GTCAGAG | -0.0246 |
| GCCAGGC | 0.0514 |
| ATCCGGA | 0.0974 |
| GTTCGAG | 0.0208 |
| GAGGATG | -0.124 |
| CGTCGTT | -0.0674 |
| CGAGTCA | 0.0365 |
| GCAGTCG | 0.0561 |
| TACCGTT | -0.0614 |
| ATGGGAA | -0.103 |
| ATAGCGC | 0.0851 |
| TCATGGA | -0.0552 |
| GACCTTG | -0.0668 |
| AGTCTGT | 0.0129 |

| Sequence | uncleaved DNA left (log2) |
| --- | --- |
| TACTCTG | 0.083 |
| AGACTCA | 0.0872 |
| GCGGAAG | 0.00599 |
| CGTTAGT | 0.0951 |
| CTCGAGC | 0.179 |
| TAACTCT | 0.0423 |
| CAGAAAC | 0.144 |
| AACGGGG | 0.122 |
| ACCACCT | 0.114 |
| TCACGCA | -0.123 |
| TGTAGCG | 0.0161 |
| GTCCTTC | -0.157 |
| TTCACAG | -0.187 |
| TGTCCCC | -0.0921 |
| CTGAAGT | 0.108 |
| TGCACAG | 0.08 |
| CCTGGAA | -0.0247 |
| TATCATG | -0.0457 |
| AATACTT | -0.0656 |
| GGCTTCG | -0.0457 |

The sequences below were run on T3, Rep nickase domain of maize striate mosaic virus in the same assay as above.
T3 sequence (protein, residues 1-117, tag omitted): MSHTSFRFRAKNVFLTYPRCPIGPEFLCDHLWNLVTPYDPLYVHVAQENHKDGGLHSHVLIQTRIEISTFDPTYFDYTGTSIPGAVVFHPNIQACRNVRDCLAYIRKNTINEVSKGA
Method: as §1

| Sequence | uncleaved DNA left (log2) |
| --- | --- |
| ATACATA | -0.463 |
| GTGAGCG | -0.994 |
| CACCATA | -0.826 |
| CCTCGCA | -0.93 |
| AGGTTGC | -1.14 |
| TGCCGTG | -0.837 |
| GTCAGAG | 1.17 |
| GCCAGGC | -0.438 |
| ATCCGGA | -0.00259 |
| GTTCGAG | 0.899 |
| GAGGATG | 0.682 |
| CGTCGTT | -0.578 |
| CGAGTCA | -0.00269 |
| GCAGTCG | -0.702 |
| TACCGTT | -0.898 |
| ATGGGAA | 1.48 |
| ATAGCGC | -0.842 |
| TCATGGA | -0.677 |
| GACCTTG | -0.552 |
| AGTCTGT | 1.32 |

| Sequence | uncleaved DNA left (log2) |
| --- | --- |
| TACTCTG | 0.0205 |
| AGACTCA | 1.87 |
| GCGGAAG | -0.389 |
| CGTTAGT | -0.68 |
| CTCGAGC | -0.523 |
| TAACTCT | -2.58 |
| CAGAAAC | -0.625 |
| AACGGGG | 2 |
| ACCACCT | -0.59 |
| TCACGCA | -1.03 |
| TGTAGCG | -0.787 |
| GTCCTTC | 1.44 |
| TTCACAG | -1.11 |
| TGTCCCC | 1.43 |
| CTGAAGT | -0.816 |
| TGCACAG | -0.569 |
| CCTGGAA | 0.195 |
| TATCATG | -1.11 |
| AATACTT | -0.596 |
| GGCTTCG | -0.388 |
